Test results as given in PubChem BioAssay AID720709 (National Center for Advancing Translational Sciences (NCATS), 2013).
Screen size: about 360,000 compounds; about 520 (0.14%) were called active. This list was built around the results that the source calls inconclusive (neither active nor inactive); the mix of calls is not that of the screen. Calls follow the shape of the dose curve; as a rule, active = well fitted inhibition curve with a large enough effect; inconclusive = small, poorly fitted or top-dose-only effect; inactive = no such curve, though single readings can be large or run the other way. Potencies beside an inconclusive call are fits to weak or partial responses and may not hold up.

target: Rap guanine nucleotide exchange factor 3 (Homo sapiens) (UniProt O95398); assay: qHTS for Antagonist of cAMP-regulated guanine nucleotide exchange factor 3 (EPAC1): primary screen; settings: EPAC1 GEF assay, Rap1b-BODIPY-GDP exchange fluorescence; activity change, negative = inhibition: at 115 µM (top of the series); also: nearly all actives have a fitted effect of over 50% in size;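 as to activity change, negative = inhibition: plate controls were vehicle for no effect and positive control for full effect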
Potency is read from the fitted curve at half-maximal effect; tags tell the direction and shape of the fitted curve.

Sequence of UniProt O95398 (O95398 whole entry, looked up): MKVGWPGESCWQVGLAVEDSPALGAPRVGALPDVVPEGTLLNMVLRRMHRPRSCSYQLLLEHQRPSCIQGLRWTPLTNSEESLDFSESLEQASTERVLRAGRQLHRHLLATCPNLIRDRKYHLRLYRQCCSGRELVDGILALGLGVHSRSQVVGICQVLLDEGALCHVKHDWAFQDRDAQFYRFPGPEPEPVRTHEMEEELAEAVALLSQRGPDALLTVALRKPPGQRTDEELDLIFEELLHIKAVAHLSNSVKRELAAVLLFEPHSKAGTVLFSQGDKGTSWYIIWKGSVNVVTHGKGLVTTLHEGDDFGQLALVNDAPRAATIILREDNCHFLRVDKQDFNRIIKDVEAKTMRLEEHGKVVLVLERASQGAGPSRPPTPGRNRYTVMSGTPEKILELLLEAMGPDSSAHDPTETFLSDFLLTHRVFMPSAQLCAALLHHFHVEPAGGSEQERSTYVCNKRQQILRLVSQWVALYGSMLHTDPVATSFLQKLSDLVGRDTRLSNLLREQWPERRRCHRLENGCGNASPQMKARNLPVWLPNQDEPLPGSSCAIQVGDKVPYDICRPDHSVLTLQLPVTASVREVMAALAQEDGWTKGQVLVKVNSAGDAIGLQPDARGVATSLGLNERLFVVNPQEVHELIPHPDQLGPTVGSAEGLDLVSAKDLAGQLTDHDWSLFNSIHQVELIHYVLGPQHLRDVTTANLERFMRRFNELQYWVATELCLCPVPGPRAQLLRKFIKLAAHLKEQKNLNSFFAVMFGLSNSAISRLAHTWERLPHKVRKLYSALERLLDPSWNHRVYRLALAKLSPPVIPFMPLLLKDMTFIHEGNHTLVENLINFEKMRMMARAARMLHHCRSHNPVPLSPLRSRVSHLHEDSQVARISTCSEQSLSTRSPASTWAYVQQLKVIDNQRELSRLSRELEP

Potency, inconclusive:
CC(=O)c1cccc(NC(=S)NC(=O)c2cncc(Br)c2)c1 35.5 µM [inhibitor, partial curve]
CC1(C)CN2C(=O)c3ccccc3C2(C)S1 (stereo not drawn) 100 µM [inhibitor, single point]
NS(=O)(=O)c1cc(C(=O)OCC(=O)N2CCc3ccccc3C2)ccc1Cl 3.55 µM [inhibitor, full curve]
CN(C)c1cccc(C(=O)OCC(=O)N(Cc2ccccc2)C2CCS(=O)(=O)C2)c1 (stereo not drawn) 31.6 µM [inhibitor, partial curve, poor fit]
O=C(Nc1ccc(Br)cc1)C1CC(c2c(F)cccc2Cl)=NO1 (stereo not drawn) 3.55 µM [inhibitor, full curve, poor fit]
O=C(COC(=O)c1cc(-c2cccs2)nn1-c1ccccc1)Nc1cccc([N+](=O)[O-])c1 12.6 µM [inhibitor, partial curve]
COc1ccc(-n2nc(C(=O)NCC(=O)N3CCN(Cc4ccccc4)CC3)c3ccccc3c2=O)cc1 89.1 µM [inhibitor, single point]
O=C(/C=C/c1ccccc1)OCCN=C1NS(=O)(=O)c2ccccc21 89.1 µM [inhibitor, single point]
O=C(CSc1ccc(F)cc1)NCCc1ccc(Cl)cc1 100 µM [inhibitor, single point]
COc1cc(OC)c2c(-c3cccc(-c4sccc4C(C)=O)c3)cc(=O)oc2c1 70.8 µM [inhibitor, single point]
O=C(O)c1ccc(-n2cccc2/C=C2/NC(=O)N(c3cccc(Cl)c3)C2=O)cc1 31.6 µM [inhibitor, partial curve]
C1CC2CN(c3nc4nonc4nc3N3CCSCC3)CCN2C1 (stereo not drawn) 39.8 µM [inhibitor, single point]
COc1ccc(-c2csc(NC(=O)c3ccccc3NS(=O)(=O)c3ccc(C)cc3)n2)cc1 100 µM [inhibitor, partial curve]
COc1ccc(-c2csc(Nc3ccc(S(=O)(=O)Nc4cc(OC)nc(OC)n4)cc3)n2)cc1 89.1 µM [inhibitor, single point]
CC(NC(=O)COC(=O)CCc1ccc(S(=O)(=O)N2CCOCC2)cc1)C1CC2CCC1C2 (stereo not drawn) 56.2 µM [inhibitor, partial curve, poor fit]
O=C(O)c1ccccc1N/N=C/C1=C(N2CCOCC2)C(=C\c2ccccc2)/CC1 79.4 µM [inhibitor, single point]
Cc1c(O)cc2n(c1=O)-c1ccc(Cl)cc1C2(C)C 79.4 µM [inhibitor, partial curve]
COc1ccc(C2=CC3=C(Br)C(=O)C(C)(OC(=O)C4CCCC4)C(=O)C3=CO2)cc1 (stereo not drawn) 31.6 µM [inhibitor, partial curve]
CC(C)CC(=O)NC(c1ccccc1)c1c(O)ccc2ccccc12 (stereo not drawn) 31.6 µM [inhibitor, partial curve]
CCCOc1cccc(NC(=O)c2c(-c3ccccc3)noc2C)c1 89.1 µM [inhibitor, single point]
O=C(Nc1cccc(S(=O)(=O)N2CCCCCC2)c1)c1ccc(Cl)nc1 2.82 µM [inhibitor, full curve, poor fit]
O=S1(=O)[C@H]2C[C@H](CO)O[C@@]2(CO)CN1Cc1ccc(-c2ccc(F)cc2)cc1 89.1 µM [inhibitor, single point]
Cc1ccc(-c2nc3c(c(=O)[nH]c(=O)n3Cc3ccccc3)n2C)o1 56.2 µM [inhibitor, partial curve]
COc1ccc(-c2c(-c3cc(OC)cc(OC)c3)n(C)c3ccc(-c4cc(F)cc(OC)c4)cc23)cc1 100 µM [inhibitor, single point]
Cc1cc(C)c[n+](-c2[nH]c(=O)sc2/C=N/N=C(\N)[S-])c1 35.5 µM [inhibitor, partial curve, poor fit]
Cc1csc(NC(=O)c2ccc(S(=O)(=O)N(C)c3ccccc3)cc2)n1 28.2 µM [inhibitor, full curve, poor fit]
Cc1ccc(NC(=O)C2(C)CCN2Cc2ccccc2OC(F)F)cc1 (stereo not drawn) 44.7 µM [inhibitor, partial curve]
CCOC(=O)c1ccc(/C=C2/C=C(c3ccccc3)N(c3ccc(Cl)c(C(=O)O)c3)C2=O)cc1 50.1 µM [inhibitor, partial curve]
COc1ccc(NC(=S)N2N=CCC2c2ccccc2)cc1 (stereo not drawn) 25.1 µM [inhibitor, partial curve]
CCOC(=O)C1Oc2ccccc2C(c2ccc(OC)cc2)=C1C(=O)OC (stereo not drawn) 89.1 µM [inhibitor, single point]
CCOC(=O)c1ccc(NC(=O)c2ccccc2C)cc1 89.1 µM [inhibitor, single point]
Cc1csc(N/N=C/c2ccc(O)c([N+](=O)[O-])c2)n1 39.8 µM [inhibitor, partial curve]
O=C1C=CC(=Nc2ccc3c(c2)Cc2cc(F)ccc2-3)O1 39.8 µM [inhibitor, single point]
CCC1(C(=O)c2ccc(Cl)cc2)C2c3ccccc3OC(=O)C21C(=O)Nc1ccccc1 (stereo not drawn) 25.1 µM [inhibitor, single point]
COc1cc(OC)c(NC(=O)CN(C)S(=O)(=O)c2ccc(-c3ccc(=O)[nH]n3)s2)cc1Cl 31.6 µM [inhibitor, full curve]
CN(CC(=O)Nc1ccc(F)cc1)C(=O)c1cc(-c2ccco2)nc2ccccc12 50.1 µM [inhibitor, partial curve, poor fit]
OC(CNc1ccccc1)COc1ccc(OCC(O)CNc2ccccc2)cc1 (stereo not drawn) 10 µM [inhibitor, partial curve]
Cn1c(N)c(C(=O)COC(=O)C2(c3cccc(F)c3)CCCC2)c(=O)n(C)c1=O 100 µM [inhibitor, partial curve]
O=C(NNC1=Nc2ccccc2SC1)c1ccccc1F 0.891 µM [inhibitor, full curve]
Fc1cccc(Cc2c(-c3ccco3)nc3ccc(Br)cn23)c1 79.4 µM [inhibitor, single point]
O=C(NNc1c2ccccc2nc2ccccc12)c1ccc(O)cc1O 79.4 µM [inhibitor, single point]

Potency, active:
O=C1C=CC(=O)c2c(O)c(N3CCN(CCOCCO)CC3)c(Br)c(O)c21 44.7 µM
Cc1ccc(/C=C2\S/C(=N/S(=O)(=O)c3cccs3)NC2=O)cc1 39.8 µM

Activity change, negative = inhibition, inactive:
O=[N+]([O-])c1ccc(NN=Cc2cccc(O)c2)nc1 -4.16%
CC(=O)Nc1ccc(SC[C@H](C)CN2CC[C@H](C(C)(C)C)CCC2=O)cc1 -3.46%
COc1ccc(OC)c(-c2nnc3n2N=C(c2ccc(OC(F)F)c(OCC4CC4)c2)CS3)c1 -22.9%
NS(=O)(=O)c1ccc(NC(=S)NCc2cccc(Cl)c2)cc1 8.21%
CC(=O)N(C1=C(N)C(=O)c2ccccc2C1=O)C(C)C -0.637%
O=C(O)CCCCN1C(=O)/C(=C\c2ccc(OCc3ccccc3)c(OCc3ccccc3)c2)SC1=S -17.1%
COc1ccccc1Nc1nc(-c2sc(N)nc2C)cs1 7.66%
CCc1ccc(Nc2n[n+](-c3ccccc3)c(-c3ccc(N(CC)CC)cc3)s2)cc1 8.38%
O=C1N/C(=N/Nc2ccccc2)S/C1=C\c1ccccc1 1.81%
COc1ccc(CCNC(=O)[C@H](C)NC(=O)N2CCn3c2nc2ccccc23)cc1OC 2.83%
CCOC(=O)c1c(NC(=O)C2=C(C)NC(=S)NC2c2ccccc2C(F)(F)F)sc(C)c1C (stereo not drawn) 2.85%
C/C(CC(=O)Nc1ccc(Cl)c(Cl)c1)=N\NC(N)=S -23.9%
CC(C)(C)OC(=O)N1CCC(C(=O)Nc2cccc(C(=O)NCCCc3ccccc3)c2)CC1 -2.41%
Cc1ccc(OCC(O)Cn2c(=N)n(Cc3ccccc3)c3ccccc32)cc1 (stereo not drawn) 3.62%
O=c1oc2c(CN3CCOCC3)c(O)ccc2c2ccccc12 -1.21%
CCCS/C(N)=N/N=C/c1cc(C)ccc1O -22.6%
CS(=O)(=O)N1CCc2cc(C(=O)Nc3ccc(COCC(F)(F)F)cc3)ccc21 -2.84%
C=C(CN(C)C)C(=O)c1cc(OC)c(OC)cc1OC -17.3%
CCOc1ccc(OCc2ccc(C(=O)N3CCOCC3)cc2)cc1 -2.32%
C[C@@H]1CN([C@@H](C)CO)C(=O)CCCn2nncc2CO[C@H]1CN(C)C(=O)Nc1ccccc1F -11.5%
N#C/C(=C/c1ccc(N2CCCCCC2)o1)c1ccc(F)cc1 0.0393%
COCC(=O)O[C@]1(CCN(C)CCCc2nc3ccccc3[nH]2)CCc2cc(F)ccc2[C@@H]1C(C)C 7.58%
CCC(C(=O)Nc1c(C)cccc1C)n1c(-c2ccc(=O)[nH]c2)nc2ccccc21 (stereo not drawn) 10.1%

Activity change, negative = inhibition, inconclusive:
Cc1ccc(NC(=O)CN2C(=O)NC(Cc3c[nH]c4ccccc34)C2=O)cc1 (stereo not drawn) -10.5% [inhibitor]
CC1(C(=O)NCCc2c[nH]c3ccccc23)CCN1Cc1ccccc1OC(F)F (stereo not drawn) -31.4% [inhibitor]
